Holding throughout (experiment): co-IP; TAP-tagged Tof1 proteins captured on IgG Sepharose from cleared lysates of exponentially growing yeast; 2 h, 4°C; lysis buffer 50 mM HEPES pH 7.5, 300 mM KCl, 5 mM EDTA, 10 mM MgOAc, 10% glycerol, 0.01% Triton X-100; eluted in 0.2 M glycine pH 3.0; western blot with anti-Csm3
The target in assay [1] is T1, tof1 762 truncation protein, C terminally TAP tagged (S. cerevisiae) (UniProt P53840).
T1 sequence: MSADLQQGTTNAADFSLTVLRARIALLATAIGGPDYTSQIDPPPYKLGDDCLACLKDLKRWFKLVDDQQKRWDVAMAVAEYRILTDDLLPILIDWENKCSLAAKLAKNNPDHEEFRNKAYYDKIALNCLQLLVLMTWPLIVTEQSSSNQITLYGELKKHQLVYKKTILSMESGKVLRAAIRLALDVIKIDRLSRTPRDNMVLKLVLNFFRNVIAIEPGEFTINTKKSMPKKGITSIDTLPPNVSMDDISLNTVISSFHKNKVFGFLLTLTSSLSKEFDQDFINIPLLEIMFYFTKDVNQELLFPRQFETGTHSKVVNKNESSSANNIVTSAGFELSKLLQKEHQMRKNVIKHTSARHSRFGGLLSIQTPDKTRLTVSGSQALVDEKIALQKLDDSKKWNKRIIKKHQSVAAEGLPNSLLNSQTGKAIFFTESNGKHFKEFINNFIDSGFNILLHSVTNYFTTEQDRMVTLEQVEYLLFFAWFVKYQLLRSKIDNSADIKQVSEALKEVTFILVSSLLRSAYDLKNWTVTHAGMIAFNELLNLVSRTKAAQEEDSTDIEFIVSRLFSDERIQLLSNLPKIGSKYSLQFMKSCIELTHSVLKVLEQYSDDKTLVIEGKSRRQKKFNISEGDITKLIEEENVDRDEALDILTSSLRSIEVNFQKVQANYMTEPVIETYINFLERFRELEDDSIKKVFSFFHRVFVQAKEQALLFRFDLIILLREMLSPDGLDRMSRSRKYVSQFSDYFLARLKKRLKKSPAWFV

Assay [2] concerns the target T2, tof1 627 truncation protein, C terminally TAP tagged (S. cerevisiae) (UniProt P53840).
T2 sequence: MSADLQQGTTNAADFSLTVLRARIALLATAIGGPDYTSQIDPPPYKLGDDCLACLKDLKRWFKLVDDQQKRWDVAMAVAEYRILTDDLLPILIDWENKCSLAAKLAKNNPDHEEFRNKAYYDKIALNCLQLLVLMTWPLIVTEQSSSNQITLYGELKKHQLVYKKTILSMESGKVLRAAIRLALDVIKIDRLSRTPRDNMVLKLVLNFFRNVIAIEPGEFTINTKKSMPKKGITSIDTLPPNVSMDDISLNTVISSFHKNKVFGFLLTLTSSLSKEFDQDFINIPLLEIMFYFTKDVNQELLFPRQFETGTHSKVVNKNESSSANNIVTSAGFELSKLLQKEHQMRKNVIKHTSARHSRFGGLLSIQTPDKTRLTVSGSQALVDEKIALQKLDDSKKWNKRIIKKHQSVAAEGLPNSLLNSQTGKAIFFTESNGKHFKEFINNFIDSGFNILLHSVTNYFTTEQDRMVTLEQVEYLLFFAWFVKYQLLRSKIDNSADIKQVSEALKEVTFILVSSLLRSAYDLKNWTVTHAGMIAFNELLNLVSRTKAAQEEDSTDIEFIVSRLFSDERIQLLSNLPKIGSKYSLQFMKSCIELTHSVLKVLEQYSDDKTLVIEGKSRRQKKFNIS

The target of assay [3] is T3, tof1 830 truncation protein, C terminally TAP tagged (S. cerevisiae) (UniProt P53840).
T3 sequence: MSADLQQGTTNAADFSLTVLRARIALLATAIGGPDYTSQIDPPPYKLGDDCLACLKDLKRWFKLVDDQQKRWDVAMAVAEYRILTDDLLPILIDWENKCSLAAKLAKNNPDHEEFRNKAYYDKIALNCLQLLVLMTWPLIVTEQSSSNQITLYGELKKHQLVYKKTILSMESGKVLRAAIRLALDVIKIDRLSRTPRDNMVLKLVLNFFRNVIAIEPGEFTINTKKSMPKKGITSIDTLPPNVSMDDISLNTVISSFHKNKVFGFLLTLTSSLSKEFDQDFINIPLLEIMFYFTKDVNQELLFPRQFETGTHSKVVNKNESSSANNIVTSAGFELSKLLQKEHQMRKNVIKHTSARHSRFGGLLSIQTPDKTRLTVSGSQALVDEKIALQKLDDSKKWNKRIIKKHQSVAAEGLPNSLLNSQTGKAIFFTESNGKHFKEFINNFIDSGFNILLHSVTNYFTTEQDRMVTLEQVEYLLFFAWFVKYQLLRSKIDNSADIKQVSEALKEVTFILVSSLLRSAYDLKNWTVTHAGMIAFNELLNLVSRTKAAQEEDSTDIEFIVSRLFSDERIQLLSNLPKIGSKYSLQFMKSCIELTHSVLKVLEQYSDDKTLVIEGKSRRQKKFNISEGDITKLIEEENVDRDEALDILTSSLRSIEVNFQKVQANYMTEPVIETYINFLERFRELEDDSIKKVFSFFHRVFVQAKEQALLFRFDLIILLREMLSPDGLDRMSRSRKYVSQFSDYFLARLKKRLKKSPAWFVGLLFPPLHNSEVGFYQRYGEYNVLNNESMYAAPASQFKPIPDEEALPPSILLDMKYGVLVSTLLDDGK

Results are given in words; binding and its absence hold for the method and conditions named. Binding seen in cells or lysates may run through a third protein. Some entries that bind do so weakly or less than the wild type. Sequences can lack the tags named with a protein.

These results are taken from article PMC7708041.

B1: Csm3 (protein, UniProt Q04659 1-317)
chain: MDQDFDSLLLGFNDSDSVQKDPTVPNGLDGSVVDPTIADPTAITARKRRPQVKLTAEKLLSDKGLPYVLKNAHKRIRISSKKNSYDNLSNIIQFYQLWAHELFPKAKFKDFMKICQTVGKTDPVLREYRVSLFRDEMGMSFDVGTRETGQDLERQSPMVEEHVTSAEERPIVADSFAQDKRNVNNVDYDNDEDDDIYHLSYRNRRGRVLDERGNNETVLNNVVPPKEDLDALLKTFRVQGPVGLEENEKKLLLGWLDAHRKMEKGSMTEEDVQLIQSLEEWEMNDIEGQHTHYDLLPGGDEFGVDQDELDAMKEMGF
B1: the figures for the binding entry in assay [1], in assay [2] and in assay [3] were “no binding”, “no binding” and “binds”, respectively.
